Laboratory results reported in the antibiotic and cytotoxicity screens of Wong et al. (2023).
The other results are listed elsewhere or left out.

test system: S. aureus RN4220; assay: growth inhibition call (relative growth <= 0.2); settings: 50 µM

Growth inhibition call, inactive:
Cc1ccc(S(=O)(=O)Nc2ccc3c(c2)C(=O)N([C@@H](C)CO)C[C@H](C)[C@@H](CN(C)C(=O)C2CCCCC2)OCCCC[C@@H](C)O3)cc1, COc1ccc(NC(=O)Nc2ccc3c(c2)CC(=O)N([C@@H](C)CO)C[C@H](C)[C@H](CN(C)Cc2ccc(-c4ccccc4)cc2)O3)cc1, O=c1nc(C(F)(F)F)[nH]c2nc[nH]c12, C[C@H]1CN([C@@H](C)CO)C(=O)Cc2cc(NC(=O)Cn3cnnn3)ccc2O[C@H]1CN(C)S(=O)(=O)c1ccc(Cl)cc1, N#Cc1c(N)n(CCN)c2nc3ccccc3nc12, CO[C@H]1CN(C)C(=O)c2ccc(NC(=O)Nc3ccc(Cl)cc3)cc2OC[C@H](C)N(C(=O)Nc2c(C)noc2C)C[C@@H]1C, C[C@@H]1CCCCO[C@H](CN(C)Cc2ccncc2)[C@@H](C)CN([C@H](C)CO)C(=O)c2cc(NC(=O)c3ccccc3)ccc2O1, Cc1cc(C)c(-n2cccc2CN)c(C)c1, C[C@H]1CCCCO[C@@H](CN(C)C(=O)CCC(F)(F)F)[C@@H](C)CN([C@@H](C)CO)C(=O)c2cc(NC(=O)NC3CCCCC3)ccc2O1, C[C@H](CO)N1C[C@H](C)[C@H](CN(C)S(=O)(=O)c2cccs2)OCCCC[C@H](C)Oc2ccc(NC(=O)Nc3ccc4c(c3)OCO4)cc2C1=O, C[C@@H]1CN([C@H](C)CO)C(=O)c2cc(NS(=O)(=O)c3ccc(Cl)cc3)ccc2O[C@@H]1CN(C)S(C)(=O)=O, Nc1nc(F)nc2c1ncn2C1OC(COP(=O)(O)O)C(O)C1O (centres undefined), COc1cc2c3cc1Oc1cc(ccc1O)CC1c4c(cc(OC)c(O)c4Oc4ccc(cc4)CC3N(C)CC2)CC[N+]1(C)C.Cl.O.O.O.O.O.[Cl-] (centres undefined), CC(C)(C)OC(=O)C[C@H]1CC=CC[C@H](CC(=O)N(CCO)Cc2ccccc2)C(=O)N2CCC[C@@H]2COC1=O, COc1ccc(S(=O)(=O)Nc2ccc3c(c2)CC(=O)N([C@H](C)CO)C[C@H](C)[C@H](CN(C)CC2CC2)O3)cc1, C[C@@H]1CN([C@H](C)CO)S(=O)(=O)c2ccc(C#CC(C)(C)O)cc2O[C@@H]1CN(C)C(=O)CN(C)C, COc1ccc(NC(=O)N(C)C[C@H]2Oc3c(NC(=O)c4cc(C)nn4C)cccc3C(=O)N([C@H](C)CO)C[C@@H]2C)cc1, C[C@@H]1CN([C@H](C)CO)C(=O)CCCn2cc(nn2)CO[C@@H]1CN(C)C(=O)Nc1ccc(N2CCN(C)CC2)cc1, COc1ccc([C@@H]([C@H](Cc2ccccc2)OC(C)=O)N2C[C@H]3[C@@H]([C@@H](O)c4ccccc4)ON(C)[C@H]3[C@@H]2Cc2ccccc2)cc1, C[C@H]1CN([C@@H](C)CO)C(=O)c2cccc(NC(=O)c3nc4ccccc4s3)c2O[C@@H]1CN(C)S(C)(=O)=O, C[C@@H]1CN([C@H](C)CO)C(=O)c2c(c3ccccc3n2C)-c2ccccc2CO[C@@H]1CN(C)C(=O)Nc1ccccc1C(F)(F)F, Cc1ccc(S(=O)(=O)Nc2ccc3c(c2)C(=O)N([C@@H](C)CO)C[C@H](C)[C@@H](CN(C)Cc2ccncc2)OCCCC[C@H](C)O3)cc1, C[C@H](CO)N1C[C@H](C)[C@H](CN(C)Cc2ccc(Oc3ccccc3)cc2)OCc2ccccc2-c2ccccc2C1=O, CC(C)(CO)[C@@H](O)C(=O)NCCC(=O)O, C[C@@H]1CN([C@H](C)CO)C(=O)c2ccccc2-c2ccccc2CO[C@H]1CN(C)C(=O)Nc1ccc(-c2ccccc2)cc1, C[C@@H]1CN([C@@H](C)CO)C(=O)c2cc(NS(=O)(=O)c3cccs3)ccc2O[C@@H](C)CCCCO[C@@H]1CN(C)Cc1ccccc1, Cc1ccc(S(=O)(=O)Nc2ccc3c(c2)C(=O)N([C@H](C)CO)C[C@@H](C)[C@@H](CN(C)S(=O)(=O)c2ccc(C)cc2)OCCCC[C@H](C)O3)cc1, CO[C@@H]1CN(C)C(=O)c2cc(NS(C)(=O)=O)ccc2OC[C@H](C)N(C(=O)CN(C)C)C[C@@H]1C, C[C@H](C(=O)N(C)C[C@H]1OCc2ccccc2-c2c(n(C)c3ccccc23)C(=O)N([C@H](C)CO)C[C@@H]1C)c1ccccc1
